Our source for the T/C values is PubChem BioAssay AID248 (DTP/NCI, 2004).

The test has as its system L1210 leukemia ip in BDF1 mice, survival T/C. The test can be described thus: NCI In Vivo Anticancer Drug Screen. Data for tumor model L1210 Leukemia (intraperitoneal) in B6D2F1 (BDF1) mice. Particulars: endpoint: mean survival time, higher = longer survival.

Inconclusive results and toxic doses are left out. For part of its entries the source gives two or more results. This is not the full list of results. An entry can have further records. Results that share an entry are repeated measurements in other runs, samples, wells, individuals or studies.

On to `CC1CN1c1cc(O)c(N2CC2C)cc1O` (stereo not drawn), for which the T/C (dose: 1.8 mg/kg/injection, schedule: Q01DX Z (ip), vehicle: methylcellulose (MC)) is 116 % of control, 117 % of control, 160 % of control.

Turning to `CN=C(NC)c1ccc(NC(=O)c2ccc(C(=O)Nc3ccc(C(=NC)NC)cc3)cc2)cc1`, the T/C (dose: 0.45 mg/kg/injection, schedule: Q01DX Z (ip), vehicle: methylcellulose (MC)) was 104 % of control and 158 % of control. With `CCN(CC)P(=O)(N1CC1(C)C)N1CC1(C)C` (stereo not drawn), where the note is “dose: 200.0 mg/kg/injection, schedule: Q01DX001 (ip), vehicle: saline”, the T/C was 115 % of control and 155 % of control.

In the case of `CCC(=O)NC1=C(N2CC2)C(=O)C(NC(=O)CC)=C(N2CC2)C1=O`, the T/C (dose: 10.0 mg/kg/injection, schedule: Q01DX001 (ip), vehicle: saline) was 115 % of control and 191 % of control.

Take `ClCCC(c1ccccc1)N1CCCCC1` (stereo not drawn): for the setting “dose: 100.0 mg/kg/injection, schedule: Q01DX001 (ip), vehicle: saline”, the T/C is 92 % of control, 101 % of control, 168 % of control.

Turning to `COc1cc(-c2ccc(Nc3ccccc3C(=O)O)c(OC)c2)ccc1Nc1ccccc1C(=O)O`, the T/C (dose: 150.0 mg/kg/injection, schedule: Q01DX Z (ip), vehicle: saline) is 101 % of control and 156 % of control.

Take `C=CCNC(=O)NCC=C`: for the setting “dose: 100.0 mg/kg/injection, schedule: Q01DX009 (oral), vehicle: saline”, the T/C is 97 % of control and 160 % of control.

As to `C1OC1CN1CCC(C2CCN(CC3CO3)CC2)CC1` (stereo not drawn), for the setting “dose: 30.0 mg/kg/injection, schedule: Q01DX009 (ip), vehicle: saline”, the T/C is 107 % of control and 177 % of control.
